# Results reported in the supplement of paper PMC8728848.
# The list shows a part of the results.
# B1: rCnSL-proA (Clitocybe nebularis) (protein)
# chain: AAFFSLVVLLALLPFGIHASALPSTELTPRVNPNLPGPNDVFVGFRGTNNIVGAIYEKDGIKDTPLNNGADAEMGPGSYITDGLFTARIFASGSAGNNPGTTATVCKIYASGVQWRGAPKGYIPVAYFGNGPTAEQRRQTYLRTLGLPGTAIRFGNLNTNPGQGPTAPRQMVVPPGPLRSLLKASCFPAADTRLPQTLHYFEKRVDWNIITAADSQTWGH
# How the values were obtained:
# Assay in all cases: glycan array binding signal (z-score within array); higher = stronger binding
# Settings in all cases: glycan notation: IUPAC condensed, linker removed
# Neu5Ac(a2-8)Neu5Ac = target: Neu5Ac(a2-8)Neu5Ac
# Method in brief: (§1)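 The binding signal is a Z-score computed within each array and averaged over linkers. Arrays of the same protein sequence at different concentrations or buffers were also averaged together. Data originate from 3228 arrays in the Consortium for Functional Glycomics database, kept only where the protein sequence was available.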
# [1] = target: Neu5Ac(a2-8)Neu5Ac(a2-3)Gal(b1-3)GalNAc(b1-4)[Neu5Ac(a2-3)]Gal(b1-4)Glc
# Method in brief: as §1
# [2] = target: Neu5Ac(a2-8)Neu5Ac(a2-3)Gal(b1-3)GalNAc(b1-4)[Neu5Ac(a2-8)Neu5Ac(a2-3)]Gal(b1-4)Glc
# Method in brief: as §1
# [3] = target: Neu5Ac(a2-8)Neu5Ac(a2-3)Gal(b1-4)Glc
# Method in brief: as §1
# [4] = target: Neu5Ac(a2-8)Neu5Ac(a2-3)Gal(b1-4)GlcNAc
# Method in brief: as §1
# [5] = target: Neu5Ac(a2-8)Neu5Ac(a2-3)[Gal(b1-3)GalNAc(b1-4)]Gal(b1-4)Glc
# Method in brief: as §1
# [6] = target: Neu5Ac(a2-8)Neu5Ac(a2-3)[GalNAc(b1-4)]Gal(b1-4)Glc
# Method in brief: as §1
# [7] = target: Neu5Ac(a2-8)Neu5Ac(a2-8)Neu5Ac
# Method in brief: as §1
# [8] = target: Neu5Ac(a2-8)Neu5Ac(a2-8)Neu5Ac(a2-3)Gal(b1-4)Glc
# Method in brief: as §1
# [9] = target: Neu5Ac(a2-8)Neu5Ac(a2-8)Neu5Ac(a2-3)[Gal(b1-3)GalNAc(b1-4)]Gal(b1-4)Glc
# Method in brief: as §1
# [10] = target: Neu5Ac(a2-8)Neu5Ac(a2-8)Neu5Ac(a2-3)[GalNAc(b1-4)]Gal(b1-4)Glc
# Method in brief: as §1
# [11] = target: Neu5Ac(a2-8)Neu5Ac(a2-8)Neu5Ac(a2-8)Neu5Ac(a2-3)[GalNAc(b1-4)]Gal(b1-4)Glc
# Method in brief: as §1
# [12] = target: Neu5Ac(a2-8)Neu5Gc(a2-3)Gal(b1-4)GlcNAc
# Method in brief: as §1
# [13] = target: Neu5Ac(b2-6)Gal(b1-4)GlcNAc
# Method in brief: as §1
# Neu5Ac(b2-6)GalNAc = target: Neu5Ac(b2-6)GalNAc
# Method in brief: as §1
# [14] = target: Neu5Ac9Ac(a2-3)Gal(b1-3)GlcNAc
# Method in brief: as §1
# [15] = target: Neu5Ac9Ac(a2-3)Gal(b1-4)GlcNAc
# Method in brief: as §1
# [16] = target: Neu5Ac9Ac(a2-6)Gal(b1-4)GlcNAc
# Method in brief: as §1
# [17] = target: Neu5Gc(a2-3)Gal(b1-3)GlcNAc
# Method in brief: as §1
# [18] = target: Neu5Gc(a2-3)Gal(b1-3)[Fuc(a1-4)]GlcNAc
# Method in brief: as §1
# Neu5Gc(a2-3)Gal(b1-4)Glc = target: Neu5Gc(a2-3)Gal(b1-4)Glc
# Method in brief: as §1
# [19] = target: Neu5Gc(a2-3)Gal(b1-4)GlcNAc
# Method in brief: as §1
# [20] = target: Neu5Gc(a2-3)Gal(b1-4)GlcNAc(b1-3)Gal(b1-4)GlcNAc(b1-2)Man(a1-3)[Neu5Gc(a2-3)Gal(b1-4)GlcNAc(b1-3)Gal(b1-4)GlcNAc(b1-2)Man(a1-6)]Man(b1-4)GlcNAc(b1-4)GlcNAc
# Method in brief: as §1
# [21] = target: Neu5Gc(a2-3)Gal(b1-4)[Fuc(a1-3)]GlcNAc
# Method in brief: as §1
# [22] = target: Neu5Gc(a2-6)Gal(b1-4)GlcNAc
# Method in brief: as §1
# Neu5Gc(a2-6)GalNAc = target: Neu5Gc(a2-6)GalNAc
# Method in brief: as §1
# [23] = target: Neu5Gc(a2-8)Neu5Ac(a2-3)Gal(b1-4)GlcNAc
# Method in brief: as §1
# [24] = target: Neu5Gc(a2-8)Neu5Gc(a2-3)Gal(b1-4)GlcNAc
# Method in brief: as §1
# [25] = target: Neu5Gc(a2-8)Neu5Gc(a2-3)Gal(b1-4)GlcNAc(b1-3)Gal(b1-4)GlcNAc
# Method in brief: as §1
# [26] = target: Neu5Gc(a2-8)Neu5Gc(a2-6)Gal(b1-4)GlcNAc
# Method in brief: as §1
# [27] = target: Neu5Gc(b2-6)Gal(b1-4)GlcNAc
# Method in brief: as §1
binder,measurement,setting,value
B1,glycan array binding signal (z-score),Neu5Ac(a2-8)Neu5Ac,-0.141
same,glycan array binding signal (z-score),[1],-0.273
same,glycan array binding signal (z-score),[2],0.388
same,glycan array binding signal (z-score),[3],-0.527
same,glycan array binding signal (z-score),[4],-0.848
same,glycan array binding signal (z-score),[5],-0.385
same,glycan array binding signal (z-score),[6],-0.715
same,glycan array binding signal (z-score),[7],-0.552
same,glycan array binding signal (z-score),[8],-0.436
same,glycan array binding signal (z-score),[9],0.673
same,glycan array binding signal (z-score),[10],-0.807
same,glycan array binding signal (z-score),[11],-0.317
same,glycan array binding signal (z-score),[12],-0.765
same,glycan array binding signal (z-score),[13],-0.665
same,glycan array binding signal (z-score),Neu5Ac(b2-6)GalNAc,-0.547
same,glycan array binding signal (z-score),[14],-0.188
same,glycan array binding signal (z-score),[15],2.01
same,glycan array binding signal (z-score),[16],-0.286
same,glycan array binding signal (z-score),[17],-0.115
same,glycan array binding signal (z-score),[18],-0.319
same,glycan array binding signal (z-score),Neu5Gc(a2-3)Gal(b1-4)Glc,-0.61
same,glycan array binding signal (z-score),[19],-0.444
same,glycan array binding signal (z-score),[20],0.288
same,glycan array binding signal (z-score),[21],-0.236
same,glycan array binding signal (z-score),[22],-0.088
same,glycan array binding signal (z-score),Neu5Gc(a2-6)GalNAc,-0.231
same,glycan array binding signal (z-score),[23],-0.591
same,glycan array binding signal (z-score),[24],-0.543
same,glycan array binding signal (z-score),[25],-0.646
same,glycan array binding signal (z-score),[26],-0.631
same,glycan array binding signal (z-score),[27],-0.083
